Data reported in the supplement of paper PMC12217912.
The other results are listed elsewhere or left out. Sequences were assembled here from the parent chain. Inactive controls read about 0.05.

B1: TEV protease; numbered along this chain (parent)
chain: MGESLFKGPRDYNPISSSICHLTNESDGHTTSLYGIGFGPFIITNKHLFRRNNGTLVVQSLHGVFKVKDTTTLQQHLVDGRDMIIIRMPKDFPPFPQKLKFREPQREERICLVTTNFQTKSMSSMVSDTSCTFPSGDGIFWKHWIQTKDGQCGSPLVSTRDGFIVGIHSASNFTNTNNYFTSVPKNFMELLTNQEAQQWVSGWRLNADSVLWGGHKVFMVKPEEPFQPVKEATQL

Variants of: B1
Assay: raw area under fraction-flipped curve 0-4 h after induction (AUC4h, not background-subtracted), DNA-recorder readout of cleavage of the substrate (dimensionless); higher = more cleavage of the substrate by the protease variant
Conditions: temperature: 34 °C; time window: 0-4 h after rhamnose induction
Experimental: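 In vivo DNA recorder in E. coli TOP10(DE3) ΔrhaA at 34 °C. Each TEVp single-site mutant (parent TEVp 0) is paired with a single-site variant of the 7-mer TEVs (canonical ENLYFQ|S). The substrate sits between flexible linkers in a Bxb1-sfGFP-TEVs-SsrA fusion, so cleavage stabilises Bxb1 and speeds flipping of a recombination array, read by NGS. The value is the raw area under the fraction-flipped curve over 0-4 h after rhamnose induction (AUC4h), with ≥20 reads per time point. It is not background-subtracted; inactive controls average about 0.047.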
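Also: Bxb1 expression induced with 0.2% (w/v) L-rhamnose at OD600 near 0.5, cultures sampled hourly, flipped fraction per protease–substrate barcode pair counted by paired-end Illumina sequencing.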

Variant	area with substrate EALYFQS	area with substrate EELYFQS	area with substrate ETLYFQS	area with substrate EVLYFQS	area with substrate EDLYFQS	area with substrate EFLYFQS	area with substrate EGLYFQS	area with substrate EILYFQS	area with substrate ELLYFQS	area with substrate EMLYFQS	area with substrate EPLYFQS	area with substrate EQLYFQS	area with substrate ERLYFQS	area with substrate ESLYFQS	area with substrate EKLYFQS	area with substrate EWLYFQS	area with substrate EHLYFQS	area with substrate EYLYFQS	area with substrate ECLYFQS
MGESLFKGPRDYNPISSSICHLTNESDGHTTSLYGIGFGPFIITNKHLFRRNNGTLVVQSLHGVFKVKDTTTLQQHLVDGRDMIIIRMPKDFPPFPQKLKFREPQREERICLVTTNFQTKSMSSMVSDTSCTFPSGDGIFWKHWIQTKDGQCKSPLVSTRDGFIVGIHSASNFTNTNNYFTSVPKNFMELLTNQEAQQWVSGWRLNADSVLWGGHKVFMVKPEEPFQPVKEATQL [G153K]	0.0621	0.0473	0.0302	0.038	–	–	–	–	–	–	–	–	–	–	–	–	–	–	–
MGESLFKGPRDYNPISSSICHLTNESDGHTTSLYGIGFGPFIITNKHLFRRNNGTLVVQSLHGVFKVKDTTTLQQHLVDGRDMIIIRMPKDFPPFPQKLKFREPQREERICLVTTNFQTKSMSSMVSDTSCTFPSGDGIFWKHWIQTHDGQCGSPLVSTRDGFIVGIHSASNFTNTNNYFTSVPKNFMELLTNQEAQQWVSGWRLNADSVLWGGHKVFMVKPEEPFQPVKEATQL [K148H]	0.088	0.0975	–	–	0.101	0.075	0.0886	0.0781	0.109	0.0799	0.0647	0.0778	0.0803	0.0815	–	–	–	–	–
MGESLFKGPRDYNPISSSICHLTNESDGHTTSLYGIGFGPFIITNKHLFRRNNGTLVVQSLHGVFKVKDTTTLQQHLVDGRDMIIIRMPKDFPPFPQKLKFREPQREERICLVTTNFQTKSMSSMVSDTSCTFPSGDGIFWKHWIQTKLGQCGSPLVSTRDGFIVGIHSASNFTNTNNYFTSVPKNFMELLTNQEAQQWVSGWRLNADSVLWGGHKVFMVKPEEPFQPVKEATQL [D149L]	0.0835	–	0.0937	0.0733	–	0.0833	0.0592	0.0591	–	–	0.0653	–	0.0793	0.0621	0.0782	0.0693	–	–	–
MGESLFKGPRDYNPISSSICHLTNESDGHTTSLYGIGFGPFIITNKHLFRRNNGTLVVQSLHGVFKVKDTTTLQQHLVDGRDMIIIRMPKDFPPFPQKLKFREPQREERICLVTTNFQTKSMSSMVSDTSCTFPSGDGIFWKHWIQTKDGDCGSPLVSTRDGFIVGIHSASNFTNTNNYFTSVPKNFMELLTNQEAQQWVSGWRLNADSVLWGGHKVFMVKPEEPFQPVKEATQL [Q151D]	0.148	–	0.0808	0.0995	–	0.0896	0.0846	0.124	0.0833	–	0.118	0.127	0.111	0.0893	0.102	0.112	0.101	–	–
MGESLFKGPRDYNPISSSICHLTNESDGHTTSLYGIGFGPFIITNKHLFRRNNGTLVVQSLHGVFKVKDTTTLQQHLVDGRDMIIIRMPKDFPPFPQKLKFREPQREERICLVTTNFQTKSMSSMVSDTSCTFPSGDGIFWKHWIQTKDIQCGSPLVSTRDGFIVGIHSASNFTNTNNYFTSVPKNFMELLTNQEAQQWVSGWRLNADSVLWGGHKVFMVKPEEPFQPVKEATQL [G150I]	0.0601	0.0554	0.0506	0.0606	0.0634	–	–	0.0521	0.0597	0.0633	0.0497	0.062	0.0533	0.063	0.0617	0.0529	0.0534	0.0541	–
MGESLFKGPRDYNPISSSICHLTNESDGHTTSLYGIGFGPFIITNKHLFRRNNGTLVVQSLHGVFKVKDTTTLQQHLVDGRDMIIIRMPKDFPPFPQKLKFREPQREERICLVTTNFQTKSMSSMVSDTSCTFPSGDGIFWKHWIQTKDDQCGSPLVSTRDGFIVGIHSASNFTNTNNYFTSVPKNFMELLTNQEAQQWVSGWRLNADSVLWGGHKVFMVKPEEPFQPVKEATQL [G150D]	0.0672	0.0662	–	0.059	–	–	–	–	–	–	–	–	–	0.0564	–	0.0614	–	–	0.0483
MGESLFKGPRDYNPISSSICHLTNESDGHTTSLYGIGFGPFIITNKHLFRRNNGTLVVQSLHGVFKVKDTTTLQQHLVDGRDMIIIRMPKDFPPFPQKLKFREPQREERICLVTTNFQTKSMSSMVSDTSCTFPSGDGIFWKHWIQKKDGQCGSPLVSTRDGFIVGIHSASNFTNTNNYFTSVPKNFMELLTNQEAQQWVSGWRLNADSVLWGGHKVFMVKPEEPFQPVKEATQL [T147K]	0.0613	0.0531	–	0.055	–	–	–	0.06	0.0677	0.0649	–	–	0.0601	0.0545	–	–	–	0.0628	–
MGESLFKGPRDYNPISSSICHLTNESDGHTTSLYGIGFGPFIITNKHLFRRNNGTLVVQSLHGVFKVKDTTTLQQHLVDGRDMIIIRMPKDFPPFPQKLKFREPQREERICLVTTNFQTKSMSSMVSDTSCTFPSGDGIFWKHWIQTKDGQCGTPLVSTRDGFIVGIHSASNFTNTNNYFTSVPKNFMELLTNQEAQQWVSGWRLNADSVLWGGHKVFMVKPEEPFQPVKEATQL [S154T]	0.0736	0.0871	–	0.109	–	–	–	0.116	0.0904	0.128	0.0737	–	0.0982	0.114	–	0.0947	0.118	–	–
MGESLFKGPRDYNPISSSICHLTNESDGHTTSLYGIGFGPFIITNKHLFRRNNGTLVVQSLHGVFKVKDTTTLQQHLVDGRDMIIIRMPKDFPPFPQKLKFREPQREERICLVTTNFQTKSMSSMVSDTSCTFPSGDGIFWKHWIQTKDGQCGYPLVSTRDGFIVGIHSASNFTNTNNYFTSVPKNFMELLTNQEAQQWVSGWRLNADSVLWGGHKVFMVKPEEPFQPVKEATQL [S154Y]	0.0807	–	0.0792	–	–	–	0.0856	–	–	0.0826	0.12	–	–	0.0849	–	0.0786	0.101	–	–
MGESLFKGPRDYNPISSSICHLTNESDGHTTSLYGIGFGPFIITNKHLFRRNNGTLVVQSLHGVFKVKDTTTLQQHLVDGRDMIIIRMPKDFPPFPQKLKFREPQREERICLVTTNFQTKSMSSMVSDTSCTFPSGDGIFWKHWIQTKDGQCGKPLVSTRDGFIVGIHSASNFTNTNNYFTSVPKNFMELLTNQEAQQWVSGWRLNADSVLWGGHKVFMVKPEEPFQPVKEATQL [S154K]	0.087	0.121	0.081	0.0773	0.126	0.106	–	0.0738	–	0.129	0.0894	0.0966	0.0671	0.09	0.0945	–	0.183	–	–
